Measurements published in paper PMC4868714.
Results are given in words; binding and its absence hold for the method and conditions named. Binding seen in cells or lysates may run through a third protein. Some binding calls cover weakened binding; strength is not graded here. For part of these data: Tags and fused reporters may be left off the sequences shown.

Chains of the proteins cited; added tags and fusions are not shown.
UniProt P08151: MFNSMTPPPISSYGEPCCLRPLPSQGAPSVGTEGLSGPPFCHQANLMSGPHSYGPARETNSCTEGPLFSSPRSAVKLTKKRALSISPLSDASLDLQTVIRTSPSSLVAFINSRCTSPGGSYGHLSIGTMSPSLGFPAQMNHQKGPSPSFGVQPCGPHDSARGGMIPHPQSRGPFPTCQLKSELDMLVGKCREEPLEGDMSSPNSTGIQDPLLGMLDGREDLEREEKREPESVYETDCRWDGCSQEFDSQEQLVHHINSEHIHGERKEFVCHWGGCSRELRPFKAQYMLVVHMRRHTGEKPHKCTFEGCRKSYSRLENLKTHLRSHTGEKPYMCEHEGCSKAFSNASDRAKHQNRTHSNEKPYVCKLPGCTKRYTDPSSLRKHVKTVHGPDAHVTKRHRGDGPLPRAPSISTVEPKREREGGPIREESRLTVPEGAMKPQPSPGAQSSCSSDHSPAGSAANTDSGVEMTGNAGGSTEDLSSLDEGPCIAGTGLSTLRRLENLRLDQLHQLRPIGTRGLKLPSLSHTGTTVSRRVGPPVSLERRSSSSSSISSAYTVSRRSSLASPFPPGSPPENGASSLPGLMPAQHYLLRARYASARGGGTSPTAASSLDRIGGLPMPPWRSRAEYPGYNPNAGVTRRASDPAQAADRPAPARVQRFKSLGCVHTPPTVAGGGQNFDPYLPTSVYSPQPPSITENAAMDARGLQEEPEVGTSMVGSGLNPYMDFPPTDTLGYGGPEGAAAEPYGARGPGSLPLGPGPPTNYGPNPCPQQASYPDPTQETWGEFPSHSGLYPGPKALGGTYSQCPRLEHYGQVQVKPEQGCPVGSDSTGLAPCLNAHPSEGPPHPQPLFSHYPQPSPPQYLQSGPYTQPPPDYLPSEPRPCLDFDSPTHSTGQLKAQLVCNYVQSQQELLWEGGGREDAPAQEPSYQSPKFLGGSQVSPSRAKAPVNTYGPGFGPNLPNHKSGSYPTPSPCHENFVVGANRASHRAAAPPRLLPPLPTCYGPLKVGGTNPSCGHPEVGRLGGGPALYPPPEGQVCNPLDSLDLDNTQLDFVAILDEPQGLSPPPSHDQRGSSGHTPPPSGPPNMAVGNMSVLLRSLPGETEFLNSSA
UniProt P10070: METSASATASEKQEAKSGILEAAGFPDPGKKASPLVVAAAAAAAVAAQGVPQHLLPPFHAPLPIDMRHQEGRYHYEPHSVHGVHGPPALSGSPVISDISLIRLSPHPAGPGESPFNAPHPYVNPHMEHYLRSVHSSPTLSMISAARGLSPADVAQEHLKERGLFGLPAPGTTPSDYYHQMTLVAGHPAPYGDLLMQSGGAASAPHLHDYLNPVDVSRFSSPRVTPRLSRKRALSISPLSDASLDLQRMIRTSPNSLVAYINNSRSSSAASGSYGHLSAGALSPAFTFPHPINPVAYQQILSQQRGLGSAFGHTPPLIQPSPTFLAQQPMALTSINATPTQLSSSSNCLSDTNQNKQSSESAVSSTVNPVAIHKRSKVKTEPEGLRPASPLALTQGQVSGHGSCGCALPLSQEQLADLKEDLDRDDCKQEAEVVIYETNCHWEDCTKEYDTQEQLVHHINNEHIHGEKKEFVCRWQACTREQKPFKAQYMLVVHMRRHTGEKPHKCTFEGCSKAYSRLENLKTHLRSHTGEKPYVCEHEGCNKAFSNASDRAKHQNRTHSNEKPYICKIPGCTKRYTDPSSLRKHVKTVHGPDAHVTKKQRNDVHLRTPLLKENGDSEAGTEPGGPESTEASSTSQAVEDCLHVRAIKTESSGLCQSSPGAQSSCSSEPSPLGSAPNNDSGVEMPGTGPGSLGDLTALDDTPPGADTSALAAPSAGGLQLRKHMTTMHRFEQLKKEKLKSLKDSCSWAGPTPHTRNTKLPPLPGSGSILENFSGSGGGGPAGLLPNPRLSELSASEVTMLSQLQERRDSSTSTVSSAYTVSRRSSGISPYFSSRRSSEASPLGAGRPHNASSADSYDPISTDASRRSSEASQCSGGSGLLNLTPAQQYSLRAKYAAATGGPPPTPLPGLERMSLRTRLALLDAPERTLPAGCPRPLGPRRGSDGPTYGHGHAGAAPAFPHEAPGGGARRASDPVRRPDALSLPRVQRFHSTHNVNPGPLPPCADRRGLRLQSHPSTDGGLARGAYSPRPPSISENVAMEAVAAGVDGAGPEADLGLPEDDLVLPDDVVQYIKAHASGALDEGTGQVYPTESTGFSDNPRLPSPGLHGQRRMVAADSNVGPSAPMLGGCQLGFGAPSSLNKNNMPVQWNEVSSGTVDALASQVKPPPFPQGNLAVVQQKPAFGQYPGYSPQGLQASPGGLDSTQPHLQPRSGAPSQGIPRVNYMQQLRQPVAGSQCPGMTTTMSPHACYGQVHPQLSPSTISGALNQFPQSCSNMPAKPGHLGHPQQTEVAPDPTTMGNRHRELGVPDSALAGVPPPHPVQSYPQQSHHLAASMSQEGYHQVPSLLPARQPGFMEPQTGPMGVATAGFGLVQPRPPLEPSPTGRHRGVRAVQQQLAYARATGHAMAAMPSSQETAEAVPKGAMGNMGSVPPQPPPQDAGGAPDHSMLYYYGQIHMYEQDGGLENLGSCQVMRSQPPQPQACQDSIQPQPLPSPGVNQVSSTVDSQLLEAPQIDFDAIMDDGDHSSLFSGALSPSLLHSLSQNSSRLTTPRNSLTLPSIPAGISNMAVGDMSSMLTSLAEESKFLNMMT

T1: myc-tagged human TSHZ2 (human) (UniProt Q9NRE2)
T1 sequence: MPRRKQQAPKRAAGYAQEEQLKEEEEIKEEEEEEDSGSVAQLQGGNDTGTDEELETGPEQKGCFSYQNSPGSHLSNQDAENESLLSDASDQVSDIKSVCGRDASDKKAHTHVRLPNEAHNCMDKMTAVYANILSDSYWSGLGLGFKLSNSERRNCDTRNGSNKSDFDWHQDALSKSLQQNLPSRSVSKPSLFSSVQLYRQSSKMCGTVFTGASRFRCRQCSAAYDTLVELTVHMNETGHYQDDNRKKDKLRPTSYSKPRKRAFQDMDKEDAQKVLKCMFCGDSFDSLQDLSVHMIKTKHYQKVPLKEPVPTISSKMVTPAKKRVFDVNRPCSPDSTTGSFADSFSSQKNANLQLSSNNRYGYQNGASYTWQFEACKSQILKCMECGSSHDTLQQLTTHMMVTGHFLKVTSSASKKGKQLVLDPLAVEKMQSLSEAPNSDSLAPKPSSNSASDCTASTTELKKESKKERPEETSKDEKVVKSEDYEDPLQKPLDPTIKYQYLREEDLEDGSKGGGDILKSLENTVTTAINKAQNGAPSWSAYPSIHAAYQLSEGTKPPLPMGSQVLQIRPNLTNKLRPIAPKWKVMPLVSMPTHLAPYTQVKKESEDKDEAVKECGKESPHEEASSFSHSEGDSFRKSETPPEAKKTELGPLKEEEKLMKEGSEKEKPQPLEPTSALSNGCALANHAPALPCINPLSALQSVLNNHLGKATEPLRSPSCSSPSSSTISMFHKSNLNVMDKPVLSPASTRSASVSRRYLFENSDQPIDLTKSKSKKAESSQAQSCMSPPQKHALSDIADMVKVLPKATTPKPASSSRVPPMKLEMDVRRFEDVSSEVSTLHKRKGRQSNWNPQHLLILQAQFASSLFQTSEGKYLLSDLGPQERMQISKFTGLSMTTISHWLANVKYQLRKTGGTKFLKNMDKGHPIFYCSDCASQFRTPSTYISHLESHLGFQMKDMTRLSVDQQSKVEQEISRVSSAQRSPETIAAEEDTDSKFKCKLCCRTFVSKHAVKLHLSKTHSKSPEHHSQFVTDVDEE

T2: myc-tagged human TSHZ1 (human) (UniProt Q6ZSZ6)
T2 sequence: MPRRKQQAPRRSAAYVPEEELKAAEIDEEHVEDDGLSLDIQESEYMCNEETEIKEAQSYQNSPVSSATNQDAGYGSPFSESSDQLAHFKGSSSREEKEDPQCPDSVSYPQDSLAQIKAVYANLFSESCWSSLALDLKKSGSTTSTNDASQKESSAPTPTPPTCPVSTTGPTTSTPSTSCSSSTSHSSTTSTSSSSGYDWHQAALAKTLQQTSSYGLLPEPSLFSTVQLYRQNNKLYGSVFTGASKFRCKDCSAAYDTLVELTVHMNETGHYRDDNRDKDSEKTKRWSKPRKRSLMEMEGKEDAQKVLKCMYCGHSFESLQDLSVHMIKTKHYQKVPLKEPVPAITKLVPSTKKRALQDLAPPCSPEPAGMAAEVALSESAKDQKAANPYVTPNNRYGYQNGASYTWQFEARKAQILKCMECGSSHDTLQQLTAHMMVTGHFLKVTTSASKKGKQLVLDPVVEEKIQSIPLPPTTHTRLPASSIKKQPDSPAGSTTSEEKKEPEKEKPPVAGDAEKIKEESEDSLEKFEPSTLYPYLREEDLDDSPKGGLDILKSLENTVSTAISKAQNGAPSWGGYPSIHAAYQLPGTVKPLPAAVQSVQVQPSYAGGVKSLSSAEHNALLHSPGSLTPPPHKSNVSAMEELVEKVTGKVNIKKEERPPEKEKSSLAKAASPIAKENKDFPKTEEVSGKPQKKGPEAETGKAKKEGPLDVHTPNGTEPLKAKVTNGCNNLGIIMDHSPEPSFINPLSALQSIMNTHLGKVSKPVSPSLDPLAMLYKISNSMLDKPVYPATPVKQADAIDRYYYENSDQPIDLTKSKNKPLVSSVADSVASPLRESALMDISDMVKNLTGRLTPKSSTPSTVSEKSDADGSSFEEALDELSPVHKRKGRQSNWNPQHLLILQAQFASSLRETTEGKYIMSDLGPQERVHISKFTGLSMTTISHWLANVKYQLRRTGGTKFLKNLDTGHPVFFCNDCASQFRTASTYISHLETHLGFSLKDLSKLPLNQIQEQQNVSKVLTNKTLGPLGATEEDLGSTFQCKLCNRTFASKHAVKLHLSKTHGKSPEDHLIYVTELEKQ

T3: myc-tagged human TSHZ3 (human) (UniProt Q63HK5)
T3 sequence: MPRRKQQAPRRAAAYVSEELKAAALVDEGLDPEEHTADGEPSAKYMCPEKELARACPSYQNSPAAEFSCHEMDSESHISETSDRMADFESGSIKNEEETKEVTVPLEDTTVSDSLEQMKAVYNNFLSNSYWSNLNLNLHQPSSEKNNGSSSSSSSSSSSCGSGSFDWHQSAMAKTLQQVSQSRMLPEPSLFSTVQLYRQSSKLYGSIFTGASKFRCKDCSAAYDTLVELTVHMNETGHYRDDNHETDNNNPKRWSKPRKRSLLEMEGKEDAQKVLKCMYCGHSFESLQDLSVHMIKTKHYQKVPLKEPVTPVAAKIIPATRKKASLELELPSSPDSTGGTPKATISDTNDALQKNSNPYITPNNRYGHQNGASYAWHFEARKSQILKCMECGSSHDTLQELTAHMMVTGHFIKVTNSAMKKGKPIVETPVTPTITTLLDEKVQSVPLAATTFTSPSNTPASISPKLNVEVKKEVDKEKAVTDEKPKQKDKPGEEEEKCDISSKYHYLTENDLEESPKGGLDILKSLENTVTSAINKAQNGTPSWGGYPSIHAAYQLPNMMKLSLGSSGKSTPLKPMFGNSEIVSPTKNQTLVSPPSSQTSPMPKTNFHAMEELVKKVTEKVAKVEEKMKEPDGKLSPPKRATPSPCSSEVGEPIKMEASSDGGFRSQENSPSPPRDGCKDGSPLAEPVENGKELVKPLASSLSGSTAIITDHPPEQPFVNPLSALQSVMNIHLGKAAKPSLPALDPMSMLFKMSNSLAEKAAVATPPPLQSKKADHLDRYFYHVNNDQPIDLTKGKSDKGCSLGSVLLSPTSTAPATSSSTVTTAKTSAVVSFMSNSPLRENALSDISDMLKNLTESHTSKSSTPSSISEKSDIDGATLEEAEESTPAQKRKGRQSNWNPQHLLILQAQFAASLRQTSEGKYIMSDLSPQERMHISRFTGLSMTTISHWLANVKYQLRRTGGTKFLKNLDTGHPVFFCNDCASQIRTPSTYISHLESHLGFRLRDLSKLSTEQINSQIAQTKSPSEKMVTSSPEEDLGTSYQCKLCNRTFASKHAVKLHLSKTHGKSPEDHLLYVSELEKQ


Experiments:
[1] = molecular target: T1, myc-tagged human TSHZ2 (human); assay: co-IP; HEK293T cells transiently transfected with two tagged expression vectors; immunoprecipitation by the tags, as previously reported (ref. 30)
[2] = molecular target: T2, myc-tagged human TSHZ1 (human); assay: as above
[3] = molecular target: T3, myc-tagged human TSHZ3 (human); assay: as above
[4] = molecular target: endogenous CtBP2 (human (endogenous in human mammary tissue)) (UniProt P56545); assay: proximity ligation; in situ PLA (Duolink kit) on 2 μm sections of formalin-fixed, paraffin-embedded human mammary glands; endogenous proteins
[5] = molecular target: FLAG-EGFP-tagged human GLI1 (human) (UniProt P08151); assay: co-IP; HEK293T cells transiently transfected with two tagged expression vectors; immunoprecipitation by the tags, as previously reported (ref. 30)
[6] = molecular target: FLAG-EGFP-tagged human GLI2 (human) (UniProt P10070); assay: as above

binding [1]	binding [2]	binding [3]	binding [4]	binding [5]	binding [6]	Molecule
binds	no binding	no binding				HA-tagged human GLI2 (from UniProt P10070 1-1586)
binds	no binding	no binding				HA-tagged human GLI1 (from UniProt P08151 1-1106)
			binds			endogenous TSHZ2 (protein, UniProt Q9NRE2 1-1034) MPRRKQQAPKRAAGYAQEEQLKEEEEIKEEEEEEDSGSVAQLQGGNDTGTDEELETGPEQKGCFSYQNSPGSHLSNQDAENESLLSDASDQVSDIKSVCGRDASDKKAHTHVRLPNEAHNCMDKMTAVYANILSDSYWSGLGLGFKLSNSERRNCDTRNGSNKSDFDWHQDALSKSLQQNLPSRSVSKPSLFSSVQLYRQSSKMCGTVFTGASRFRCRQCSAAYDTLVELTVHMNETGHYQDDNRKKDKLRPTSYSKPRKRAFQDMDKEDAQKVLKCMFCGDSFDSLQDLSVHMIKTKHYQKVPLKEPVPTISSKMVTPAKKRVFDVNRPCSPDSTTGSFADSFSSQKNANLQLSSNNRYGYQNGASYTWQFEACKSQILKCMECGSSHDTLQQLTTHMMVTGHFLKVTSSASKKGKQLVLDPLAVEKMQSLSEAPNSDSLAPKPSSNSASDCTASTTELKKESKKERPEETSKDEKVVKSEDYEDPLQKPLDPTIKYQYLREEDLEDGSKGGGDILKSLENTVTTAINKAQNGAPSWSAYPSIHAAYQLSEGTKPPLPMGSQVLQIRPNLTNKLRPIAPKWKVMPLVSMPTHLAPYTQVKKESEDKDEAVKECGKESPHEEASSFSHSEGDSFRKSETPPEAKKTELGPLKEEEKLMKEGSEKEKPQPLEPTSALSNGCALANHAPALPCINPLSALQSVLNNHLGKATEPLRSPSCSSPSSSTISMFHKSNLNVMDKPVLSPASTRSASVSRRYLFENSDQPIDLTKSKSKKAESSQAQSCMSPPQKHALSDIADMVKVLPKATTPKPASSSRVPPMKLEMDVRRFEDVSSEVSTLHKRKGRQSNWNPQHLLILQAQFASSLFQTSEGKYLLSDLGPQERMQISKFTGLSMTTISHWLANVKYQLRKTGGTKFLKNMDKGHPIFYCSDCASQFRTPSTYISHLESHLGFQMKDMTRLSVDQQSKVEQEISRVSSAQRSPETIAAEEDTDSKFKCKLCCRTFVSKHAVKLHLSKTHSKSPEHHSQFVTDVDEE
				binds	binds	myc-tagged human TSHZ2 (protein, UniProt Q9NRE2 1-1034) MPRRKQQAPKRAAGYAQEEQLKEEEEIKEEEEEEDSGSVAQLQGGNDTGTDEELETGPEQKGCFSYQNSPGSHLSNQDAENESLLSDASDQVSDIKSVCGRDASDKKAHTHVRLPNEAHNCMDKMTAVYANILSDSYWSGLGLGFKLSNSERRNCDTRNGSNKSDFDWHQDALSKSLQQNLPSRSVSKPSLFSSVQLYRQSSKMCGTVFTGASRFRCRQCSAAYDTLVELTVHMNETGHYQDDNRKKDKLRPTSYSKPRKRAFQDMDKEDAQKVLKCMFCGDSFDSLQDLSVHMIKTKHYQKVPLKEPVPTISSKMVTPAKKRVFDVNRPCSPDSTTGSFADSFSSQKNANLQLSSNNRYGYQNGASYTWQFEACKSQILKCMECGSSHDTLQQLTTHMMVTGHFLKVTSSASKKGKQLVLDPLAVEKMQSLSEAPNSDSLAPKPSSNSASDCTASTTELKKESKKERPEETSKDEKVVKSEDYEDPLQKPLDPTIKYQYLREEDLEDGSKGGGDILKSLENTVTTAINKAQNGAPSWSAYPSIHAAYQLSEGTKPPLPMGSQVLQIRPNLTNKLRPIAPKWKVMPLVSMPTHLAPYTQVKKESEDKDEAVKECGKESPHEEASSFSHSEGDSFRKSETPPEAKKTELGPLKEEEKLMKEGSEKEKPQPLEPTSALSNGCALANHAPALPCINPLSALQSVLNNHLGKATEPLRSPSCSSPSSSTISMFHKSNLNVMDKPVLSPASTRSASVSRRYLFENSDQPIDLTKSKSKKAESSQAQSCMSPPQKHALSDIADMVKVLPKATTPKPASSSRVPPMKLEMDVRRFEDVSSEVSTLHKRKGRQSNWNPQHLLILQAQFASSLFQTSEGKYLLSDLGPQERMQISKFTGLSMTTISHWLANVKYQLRKTGGTKFLKNMDKGHPIFYCSDCASQFRTPSTYISHLESHLGFQMKDMTRLSVDQQSKVEQEISRVSSAQRSPETIAAEEDTDSKFKCKLCCRTFVSKHAVKLHLSKTHSKSPEHHSQFVTDVDEE
